# Results from the supplement of paper PMC8728848.
# Some of the results follow.
# B1: Banana lectin (Musa acuminata) (protein)
# chain: MNGAIKVGAWGGNGGSAFDMGPAYRIISVKIFSGDVVDGVDVTFTYYGKTETRHYGGSGGTPHEIVLQEGEYLVGMAGEVANYHGAVVLGKLGFSTNKKAYGPFGNTGGTPFSLPIAAGKISGFFGRGGKFLDAIGVYLEPLEHHHHHH
# Key:
# Experiment in all cases: glycan array binding signal (z-score within array); higher = stronger binding
# Conditions in all cases: glycan notation: IUPAC condensed, linker removed
# [1] = biological target: Neu5Gc(a2-8)Neu5Ac(a2-3)Gal(b1-4)GlcNAc
# Procedure, shortened: (§1)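 The binding signal is a Z-score computed within each array. Data were drawn from 3228 arrays in the Consortium for Functional Glycomics database, restricted to those with a known protein sequence. Scores were averaged over arrays of the same protein sequence at different concentrations or buffers, and over linkers, and negative values can be taken as non-binding.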
# [2] = biological target: Neu5Gc(a2-8)Neu5Gc(a2-3)Gal(b1-4)GlcNAc
# Procedure, shortened: as §1
# [3] = biological target: Neu5Gc(a2-8)Neu5Gc(a2-3)Gal(b1-4)GlcNAc(b1-3)Gal(b1-4)GlcNAc
# Procedure, shortened: as §1
# [4] = biological target: Neu5Gc(a2-8)Neu5Gc(a2-6)Gal(b1-4)GlcNAc
# Procedure, shortened: as §1
# [5] = biological target: Neu5Gc(b2-6)Gal(b1-4)GlcNAc
# Procedure, shortened: as §1
# [6] = biological target: Xyl(b1-2)[Man(a1-3)][Man(a1-6)]Man(b1-4)GlcNAc(b1-4)GlcNAc
# Procedure, shortened: as §1
# [7] = biological target: Xyl(b1-2)[Man(a1-3)][Man(a1-6)]Man(b1-4)GlcNAc(b1-4)[Fuc(a1-3)]GlcNAc
# Procedure, shortened: as §1
binder,measurement,setting,value
B1,glycan array binding signal (z-score),[1],-0.212
same,glycan array binding signal (z-score),[2],-0.22
same,glycan array binding signal (z-score),[3],-0.221
same,glycan array binding signal (z-score),[4],-0.219
same,glycan array binding signal (z-score),[5],-0.244
same,glycan array binding signal (z-score),[6],0.942
same,glycan array binding signal (z-score),[7],0.846
